Data from PubChem BioAssay AID360 (National Center for Advancing Translational Sciences (NCATS), 2006).
The campaign covered roughly 48,000 compounds. About 550 (1.1%) were called active. Another 4% or so got no clear call; they are omitted. Cut-off read from the data, not from the text of the source: active = potency below about 15 µM; inconclusive = mostly about 16 µM to 33 µM; inactive = weaker than that. This is one part of the list.

Target: Lysosomal acid glucosylceramidase (Homo sapiens) (UniProt P04062)
UniProt P04062, sequence (P04062 whole entry, looked up): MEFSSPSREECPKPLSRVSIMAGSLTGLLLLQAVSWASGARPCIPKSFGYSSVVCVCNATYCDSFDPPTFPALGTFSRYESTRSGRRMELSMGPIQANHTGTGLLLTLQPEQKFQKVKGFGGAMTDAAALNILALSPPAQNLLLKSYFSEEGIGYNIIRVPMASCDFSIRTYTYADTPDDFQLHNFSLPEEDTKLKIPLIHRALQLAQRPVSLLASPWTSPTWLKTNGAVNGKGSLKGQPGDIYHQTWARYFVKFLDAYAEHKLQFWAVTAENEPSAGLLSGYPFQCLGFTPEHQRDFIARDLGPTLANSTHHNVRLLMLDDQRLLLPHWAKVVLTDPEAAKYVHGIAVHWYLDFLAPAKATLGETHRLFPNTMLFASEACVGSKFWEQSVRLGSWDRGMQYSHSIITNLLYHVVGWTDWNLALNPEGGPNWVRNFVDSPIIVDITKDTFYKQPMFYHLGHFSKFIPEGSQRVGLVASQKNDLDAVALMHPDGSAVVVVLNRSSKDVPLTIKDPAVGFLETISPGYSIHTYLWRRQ
Assay: Glucocerebrosidase;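 note: the screen sought inhibitors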
Conditions: purified enzyme, resorufin glucoside fluorescence (screen aimed at inhibitors), 20 min; series mostly up to 77 µM
How it was run: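 Compounds titrated against 0.2 nM normal enzyme, 30 uM resorufin beta-D-glucopyranoside substrate, citrate/phosphate buffer with taurocholate and tween-20, pH 5.9. Reaction ran 20 min at room temperature; fluorescence (Ex 548/Em 600) gave AC50.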
Potency is the fitted concentration of half-maximal effect.

Potency, inactive:
O=C(CCn1c(=O)sc2ccccc21)NCCC1=CCCCC1 > 76.9 µM
OC(COc1ccccc1)Cn1cc(Br)cn1 (stereo not given) > 76.9 µM
COc1ccc2sc(C)nc2c1NC(C)=O > 76.9 µM
Cn1nc(OCc2ccccc2)ccc1=O > 76.9 µM
COc1ccc(C2=NOC(Cn3c(Cc4ccc(Cl)cc4)nc4c3c(=O)n(C)c(=O)n4C)C2)cc1 (stereo not given) > 76.9 µM
COc1cc2cc(CN(C(=O)Nc3ccccc3)C3CCCC3)c(=O)[nH]c2cc1OC > 76.9 µM
O=C(NCc1ccco1)c1cc(-c2ccncc2)nc2ccccc12 > 76.9 µM
CCN(CC)S(=O)(=O)c1cccc(-c2nnc(SC(C)C#N)n2Cc2ccccc2)c1 (stereo not given) > 76.9 µM
COc1ccccc1N1CCN(C(=O)CCc2ccc(S(=O)(=O)NC(C)C)cc2)CC1 > 76.9 µM
COC(=O)c1ccccc1NC(=O)N1CCN(C/C=C/c2ccccc2)CC1 > 76.9 µM
CS(=O)(=O)N(CCc1ccccc1)CC(=O)N1CCCCC1 > 76.9 µM
COc1cccc(OC)c1C(=O)Nc1ccc(CN2CCCCC2)cc1 > 76.9 µM
[N-]=[N+]=CC(=O)CCCN1C(=O)c2ccccc2C1=O > 76.9 µM
COCCCN1C(=O)C(=O)/C(=C(/O)c2ccc3c(c2)CC(C)O3)C1c1cccnc1 (stereo not given) > 76.9 µM
N#Cc1nc(Cc2cccc3ccccc23)oc1N1CCC(C(N)=O)CC1 > 76.9 µM
O=C(O)C1CCCN1C(=O)Oc1ccccc1 (stereo not given) > 76.9 µM
CC(=O)NC(C)C12CC3CC(CC(CC(=O)O)(C3)C1)C2 (stereo not given) > 76.9 µM
Cc1noc(C)c1CSc1nnc2scc(-c3ccccc3)n12 > 76.9 µM
CCCc1cc(=O)n2[nH]c(-c3ccc(Br)cc3)cc2n1
COc1ccc(CC(NC(C)=O)C(=O)NC2CCN(c3nnnn3-c3ccccc3)CC2)cc1 (stereo not given) > 76.9 µM
CC(N=c1ccccn1C(=O)Nc1ccc(F)cc1)c1ccco1 (stereo not given) > 76.9 µM
[O-][n+]1onc2c1CCc1nnc(-c3ccccc3)cc1-2 > 76.9 µM
COc1ccc(CCNC(=O)COC(=O)c2ccco2)cc1OC > 76.9 µM
O=C(O)C1C2C=CC(C2)C1C(=O)NCCCn1ccnc1 (stereo not given) > 76.9 µM
CCNc1nc(SCc2ccccc2)nc(N2CCOCC2)n1 > 76.9 µM
CCOC(=O)c1cc(CC)sc1N > 76.9 µM
CCOC(=O)C1CCN(C(=O)Cc2c(C(=O)O)[nH]c3ccccc23)CC1 > 76.9 µM
COc1ccc(Cn2c(CCC(=O)O)nc3cccnc32)cc1 > 76.9 µM
O=C(CCNS(=O)(=O)c1ccc(Cl)cc1)NCc1cccnc1 > 76.9 µM
CCC(C(=O)Nc1ccccc1C(=O)N1CCCC1)N1C(=O)c2ccccc2C1=O (stereo not given) > 76.9 µM
O=C(c1cc2ccccc2oc1=O)N1CCCC1 > 76.9 µM
N#CC1=C(N)n2c(s/c(=C\c3ccco3)c2=O)=C(C#N)C1c1ccco1 (stereo not given) > 76.9 µM
O=C(c1ccccc1)N1CCCOC1c1ccccc1 (stereo not given) > 76.9 µM
COc1cccc(C2/C(=C(\O)c3ccc4c(c3)OCO4)C(=O)C(=O)N2CCN(C)C)c1OC (stereo not given) > 76.9 µM
CCC(C)[C@H](NC(=O)NCc1ccco1)C(=O)O (stereo not given in full) > 76.9 µM
CCOC(=O)CC1(CC(=O)OCC)NC(=O)c2c(C)sc(C(=O)OCC)c2N1 > 76.9 µM
CCC(=O)N1c2ccc(S(=O)(=O)CCC(=O)NCCC3=CCCCC3)cc2CC1C (stereo not given) > 76.9 µM
CCCOc1ccc(C(=O)C(c2ccccc2)N2CCOCC2)cc1 (stereo not given) > 76.9 µM
CC1Cc2cc(/C(O)=C3\C(=O)C(=O)N(CCN4CCOCC4)C3c3ccccc3F)ccc2O1 (stereo not given) > 76.9 µM
Cc1cc(C(=O)O)c(CCCN)s1 > 76.9 µM
COc1cc(N2CN=c3s/c(=C\c4ccccn4)c(=O)n3C2)cc(OC)c1OC > 76.9 µM
COCCCNC(=O)c1ccc(CS(=O)(=O)Cc2cccc(C)c2)o1 > 76.9 µM
O=C(COC(=O)c1cccs1)NCC1CCCO1 (stereo not given) > 76.9 µM
Nc1nonc1-c1nc2ccccc2n1CC(=O)N1CCCCC1
CN1CCN(S(=O)C23CC4CC(CC(C4)C2)C3)CC1 (stereo not given) > 76.9 µM
CCOC(=O)C(NC(C)=O)(Nc1ccc(S(=O)(=O)Nc2cc(C)nc(C)n2)cc1)C(F)(F)F (stereo not given) > 76.9 µM
Fc1ccc2[nH]c3c(N4CCN(C5CCCCC5)CC4)ncnc3c2c1 > 76.9 µM
CCCCNC(=O)c1cc(-c2ccc(F)cc2)on1 > 76.9 µM
COc1cc(C)nc(OCCNC(=O)COc2ccc(Cl)cc2Cl)n1 > 76.9 µM
Cc1nnc(SC(C)C(=O)NCC2CCCO2)n1-c1ccccc1 (stereo not given) > 76.9 µM
CCOC(=O)c1ccccc1NC(=O)c1cn(CC)c2nc(C)ccc2c1=O > 76.9 µM
Cc1occc1C(=O)Nc1nn[nH]n1 > 76.9 µM
Cc1cc(C(=O)Nc2sc3c(c2C#N)CCCCC3)cs1 > 76.9 µM
Cc1ccc(-n2ccnc2SCC(=O)N(CC(C)C)C2CCS(=O)(=O)C2)c(C)c1 (stereo not given) > 76.9 µM
CC1CCN(C(=O)CSc2ccc3nnc(-c4ccc(F)cc4)n3n2)CC1 > 76.9 µM
CCC1Oc2ccccc2N(CC(=O)Nc2ccc3c(c2)OCCO3)C1=O (stereo not given) > 76.9 µM
COc1ccc(C2C(C(=O)N3CCN(c4ccccc4F)CC3)c3ccccc3C(=O)N2C)cc1 (stereo not given) > 76.9 µM
CC(C)(C)OC(=O)c1c(N)n(CCCN2CCCC2=O)c2nc3ccccc3nc12 > 76.9 µM
CCCCN1C(=O)C(NC(C)=O)c2cc(Br)ccc21 (stereo not given) > 76.9 µM
CCC(c1nnnn1C1CCCC1)N1CCN(c2ccccc2F)CC1 (stereo not given) > 76.9 µM
CCCn1nc(-c2ccccc2)c2nc3ccccc3nc21 > 76.9 µM
CCn1c(SCc2ccc(C(=O)OC)o2)nc2sc3c(c2c1=O)CCCC3 > 76.9 µM
CC(c1nnc(SCC(=O)Nc2ccc3[nH]c(=O)[nH]c3c2)n1Cc1ccccc1)N(C)C (stereo not given) > 76.9 µM
COC(=O)CCCC(=O)N1CCOCCN(C(=O)CCCC(=O)OC)CCOCC1 > 76.9 µM
CCCn1c2c(c(O)c(C(=O)Nc3ccc(OCC)cc3)c1=O)CCCC2 > 76.9 µM
CCOC(=O)c1cnc(SCC(=O)Nc2ccccc2N2CCOCC2)nc1N > 76.9 µM
Cc1cc(NC(=O)CCCSc2nc(-c3ccco3)cc(C(F)(F)F)n2)no1 > 76.9 µM
COc1ccc(S(=O)(=O)N2CCCC2C(=O)Nc2nccs2)cc1 (stereo not given) > 76.9 µM
COc1cc(C(=O)NCCc2ccc(S(N)(=O)=O)cc2)cc(OC)c1OC > 76.9 µM
Cc1ccc(C(=O)NC2CC(C)(C)NC(C)(C)C2)cc1C > 76.9 µM
CCOC(=O)CN(C(=O)CSc1nnc(CNc2ccc(C)cc2C)o1)c1ccccc1 > 76.9 µM
CC(C)Oc1ccc(C(CC(=O)O)NC(=O)C2CCCCC2)cc1 (stereo not given) > 76.9 µM
COc1cccc(NC(=O)CCSc2nnc3scc(-c4ccccc4)n23)c1 > 76.9 µM
O=C(CC1Nc2ccccc2NC1=O)NCCCN1CCCCCC1 (stereo not given) > 76.9 µM
Cc1cc(N(C)C)c(C#N)c(NCc2ccccc2)n1 > 76.9 µM
CCOc1ccc(C2/C(=C(\O)c3cccc(OC)c3)C(=O)C(=O)N2c2cc(C)on2)cc1OC (stereo not given) > 76.9 µM
O=C(CN1C(=O)NC2(CCCC2)C1=O)N1CCN(C(=O)c2ccco2)CC1 > 76.9 µM
O=C(Nc1nc2ccccc2[nH]1)C1CC(=O)N(c2ccc3c(c2)OCCO3)C1 (stereo not given) > 76.9 µM
COC(=O)C(O)(CC(=O)Nc1ccc(OC(F)(F)F)cc1)C(F)(F)F (stereo not given) > 76.9 µM
Cc1ccccc1OCCN1C(=O)NC2(CCc3ccccc32)C1=O (stereo not given) > 76.9 µM
O=C(Oc1ccc(-c2nnco2)cc1)N(c1ccccc1)c1ccccc1 > 76.9 µM
Cc1ccc(C)c(NC2=CC(=O)CC(C)(C)C2)c1C#N > 76.9 µM
COCCCNC(=O)CCCn1c(=O)c2ccccc2n(CC(=O)Nc2c(C)cc(C)cc2C)c1=O > 76.9 µM
COCCn1cnc2c1c(=O)n(CC(=O)c1ccc3c(c1)OCCO3)c(=O)n2Cc1ccccc1 > 76.9 µM
N#Cc1ccc(Oc2ccc(C(N)=O)cc2)cc1C#N > 76.9 µM
CCN(CC)c1nc2n(c(=O)n1)CCN2CC > 76.9 µM
Cc1cc(C)nc(Nc2ccc(N3CCOCC3)cc2)n1 > 76.9 µM
CCCc1nc2ccccc2c(=O)n1/N=C/c1ccccc1O > 76.9 µM
CC(=O)c1c(C)[nH]c(C(=O)CSc2nnc(-c3ccco3)n2Cc2ccccc2)c1C > 76.9 µM
Cc1cc(C(N)=O)c2ccccc2n1 > 76.9 µM
